From US20210346432A1 (Memorial Sloan Kettering, published 2021)

Target: T1, mouse BCMA (mouse, UniProt O88472 1-49, limits assumed)
T1 chain (looked up): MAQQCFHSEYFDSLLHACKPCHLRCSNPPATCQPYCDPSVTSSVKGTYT
Test: ELISA (OD450), single point, coats human BCMA, mouse BCMA, blank

binding result: no binding
B1: ET140-163 (scFv)
scFv: QPVLTQPPSASASLGASVTLTCTLSNDYTNYKVDWYQQRPGKGPRFVMRVGPGGIVGSKGDGIPDRFSVLGSGLNRYLTIKNIQEEDESDYHCGADHGTGSNFVYVFGGGTKLTVLGSRGGGGSGGGGSGGGGSLEMA[letters of about 100 residues omitted]SSYHLYGYDSWGQGTLVTVSS
notes: also called ET140-163 scFv; ET140-13 scFv
